From patent publication US10299477B2 (priority 2015, dated 2019)

Legend:
Format in all cases: in vivo
[1] = system: Blumeria graminis f sp. hordei; test: Test Example D: Powdery mildew on barley; details: for Test D control value (powdery mildew on barley): preventive, control value class
Description: [Test Example D] Powdery Mildew on Barley
After the sprayed dilutions were dried, conidia of Blumeria graminis f sp. hordei were inoculated to the plants by shaking off.

Plasmopara viticola = test: Test Example G: Downy mildew on vine; details: for Test G control value: 250 ppm sprayed before inoculation; for Test G (control value class): 250 ppm spray; for Test G control value (downy mildew on vine): 250 ppm spray (2.5 ml/pot), preventive, control value class
Description: [Test Example G] Downy Mildew on Vine
Seeds of a test plant (grape variety: Neomuscat) were planted followed by cultivating until three to four first leaves appeared. […] After the sprayed dilutions were dried, a zoosporangia suspension (1-2×10^4 zoosporangia/ml) of Plasmopara viticola was inoculated to the plants by spraying.

Botrytis cinerea = test: Test Example B: Gray mold on tomato; details: for Test B control value (gray mold on tomato): preventive, control value class
Description: [Test Example B] Gray Mold on Tomato
Seeds of a test plant (tomato variety: Oogata Fukuju) were planted followed by cultivating until three to five first leaves (true leaves) appeared.

Alternaia brassicicola = test: Test Example C: Alternaria sooty spot on cabbage; details: for Test C control value / Test C (control value class): Alternaria sooty spot on cabbage; for Test C control value (Alternaria sooty spot on cabbage): preventive, control value class
Description: [Test Example C] Alternaria Sooty Spot on Cabbage
Seeds of a test plant (cabbage variety: Shikidori) were planted followed by cultivating until the cotyledons extended.

Puccinia recondita = test: Test Example E: Brown rust on wheat; details: for Test E control value (brown rust on wheat): preventive, control value class
Description: [Test Example E] Brown Rust on Wheat

[2] = Downy mildew on vine, 7-10 days after inoculation
[3] = powdery mildew on barley, 250 ppm spray
[4] = downy mildew on vine, Plasmopara viticola, 7-10 days after inoculation
[5] = gray mold on tomato, Botrytis cinerea, 250 ppm spray
[6] = brown rust on wheat, Puccinia recondita, 250 ppm spray
[7] = Powdery mildew on barley, control value=100{1-(n/3)}
[8] = Downy mildew on vine, 2.5 ml/pot, evaluated 7-10 days after inoculation
[9] = Gray mold on tomato, control value=100{1-(n/3)}
[10] = Brown rust on wheat, control value=100{1-(n/3)}

In the case of `CCn1c(-c2c(F)cccc2F)c(-c2cccc(Cl)c2)cc(Br)c1=O` [Compound 179], the “Test D control value” ([1]; Powdery mildew on barley) was “L (L shows 50% or less of control values)”, the “Test G control value” (Plasmopara viticola; [2]) was “L (L shows 50% or less of control values)” and the “Test B control value” (Botrytis cinerea; Gray mold on tomato) was “L (L shows 50% or less of control values)”. The “Test C control value” (Alternaia brassicicola) was “H (H shows more than 50% of control values)” and the “Test E control value” (Puccinia recondita; Brown rust on wheat) was “L (L shows 50% or less of control values)”.
In the case of `O=c1c(Cl)cc(-c2cc(F)ccc2Cl)c(-c2c(F)cccc2F)n1CC(F)F` [Compound 392], the “Test D (control value class)” value [1, 3] was “H (H shows more than 50% of control values)”, the “Test G (control value class)” value (Plasmopara viticola; [4]) was “L (L shows 50% or less of control values)” and the “Test B (control value class)” value (Botrytis cinerea; [5]) was “H (H shows more than 50% of control values)”. For the same compound, the “Test C (control value class)” value (Alternaia brassicicola; 250 ppm spray) was “H (H shows more than 50% of control values)” and the “Test E (control value class)” value (Puccinia recondita; [6]) was “H (H shows more than 50% of control values)”.
For `O=c1c(Cl)cc(-c2c(F)c(F)c(F)c(F)c2F)c(-c2c(F)cccc2F)n1CC(F)F` [Compound 384], the “Test D (control value class)” value [1, 3] was “H (H shows more than 50% of control values)”, the “Test G (control value class)” value (Plasmopara viticola; [4]) was “L (L shows 50% or less of control values)” and the “Test B (control value class)” value (Botrytis cinerea; [5]) was “L (L shows 50% or less of control values)”. The “Test C (control value class)” value (Alternaia brassicicola; 250 ppm spray) was “L (L shows 50% or less of control values)” and the “Test E (control value class)” value (Puccinia recondita; [6]) was “H (H shows more than 50% of control values)”.
`CCn1c(-c2c(F)cccc2F)c(-c2cc(Cl)ccc2Cl)ccc1=O` [Compound 444] was tested, and the “Test D (control value class)” value [1, 3] was “H (H shows more than 50% of control values)”, the “Test G (control value class)” value (Plasmopara viticola; [4]) was “L (L shows 50% or less of control values)” and the “Test B (control value class)” value (Botrytis cinerea; [5]) was “H (H shows more than 50% of control values)”. For the same compound, the “Test C (control value class)” value (Alternaia brassicicola; 250 ppm spray) was “H (H shows more than 50% of control values)” and the “Test E (control value class)” value (Puccinia recondita; [6]) was “H (H shows more than 50% of control values)”.
`CCn1c(-c2c(F)cccc2F)c(-c2ccc(Cl)cc2Cl)cc(Cl)c1=O` [Compound 333] was tested, and the “Test D control value (powdery mildew on barley)” value ([1]; 250 ppm spray) was “H (H shows more than 50% of control values)”, the “Test G control value (downy mildew on vine)” value (Plasmopara viticola; 7-10 days after inoculation) was “L (L shows 50% or less of control values)” and the “Test B control value (gray mold on tomato)” value (Botrytis cinerea; 250 ppm spray) was “L (L shows 50% or less of control values)”. For the same compound, the “Test C control value (Alternaria sooty spot on cabbage)” value (Alternaia brassicicola; 250 ppm spray) was “L (L shows 50% or less of control values)” and the “Test E control value (brown rust on wheat)” value (Puccinia recondita; 250 ppm spray) was “H (H shows more than 50% of control values)”.
With `Cn1c(-c2c(F)cccc2F)c(-c2cccc(F)c2)cc(Cl)c1=O` [Compound 169] the “Test D control value” ([1]; Powdery mildew on barley) was “L (L shows 50% or less of control values)”, the “Test G control value” (Plasmopara viticola; [2]) was “L (L shows 50% or less of control values)” and the “Test B control value” (Botrytis cinerea; Gray mold on tomato) was “H (H shows more than 50% of control values)”. For the same compound, the “Test C control value” (Alternaia brassicicola) was “H (H shows more than 50% of control values)” and the “Test E control value” (Puccinia recondita; Brown rust on wheat) was “H (H shows more than 50% of control values)”.
In the case of `COc1cc(F)c(-c2c(-c3cc(F)cc(F)c3Br)ccc(=O)n2C)c(F)c1` [Compound 823], the “Test D (control value class)” value [1, 7] was “H (H shows more than 50% of control values)”, the “Test G (control value class)” value (Plasmopara viticola; [8]) was “L (L shows 50% or less of control values)” and the “Test B (control value class)” value (Botrytis cinerea; [9]) was “H (H shows more than 50% of control values)”. The “Test C (control value class)” value (Alternaia brassicicola; control value=100{1-(n/3)}) was “H (H shows more than 50% of control values)” and the “Test E (control value class)” value (Puccinia recondita; [10]) was “H (H shows more than 50% of control values)”.
`CCn1c(-c2c(F)cccc2F)c(-c2ccccc2C)cc(Cl)c1=O` [Compound 161] was tested, and the “Test D control value” ([1]; Powdery mildew on barley) was “H (H shows more than 50% of control values)”, the “Test G control value” (Plasmopara viticola; [2]) was “L (L shows 50% or less of control values)” and the “Test B control value” (Botrytis cinerea; Gray mold on tomato) was “H (H shows more than 50% of control values)”. The “Test C control value” (Alternaia brassicicola) was “H (H shows more than 50% of control values)” and the “Test E control value” (Puccinia recondita; Brown rust on wheat) was “H (H shows more than 50% of control values)”.
`Cn1c(-c2c(F)cccc2F)c(-c2ccc(Br)cc2)ccc1=O` [Compound 289] was tested, and the “Test D control value (powdery mildew on barley)” value ([1]; 250 ppm spray) was “H (H shows more than 50% of control values)”, the “Test G control value (downy mildew on vine)” value (Plasmopara viticola; 7-10 days after inoculation) was “L (L shows 50% or less of control values)” and the “Test B control value (gray mold on tomato)” value (Botrytis cinerea; 250 ppm spray) was “H (H shows more than 50% of control values)”. The “Test C control value (Alternaria sooty spot on cabbage)” value (Alternaia brassicicola; 250 ppm spray) was “H (H shows more than 50% of control values)” and the “Test E control value (brown rust on wheat)” value (Puccinia recondita; 250 ppm spray) was “H (H shows more than 50% of control values)”.
For `CCn1c(-c2c(F)cccc2F)c(-c2cc(OC)cc(OC)c2Cl)ccc1=O` [Compound 728], the “Test D (control value class, powdery mildew on barley)” value ([1]; in vivo) was “H (H shows more than 50% of control values)”, the “Test G (control value class, downy mildew on vine)” value (Plasmopara viticola; 250 ppm, sprayed 2.5 ml/pot before inoculation, evaluated 7-10 days after inoculation) was “H (H shows more than 50% of control values)” and the “Test B (control value class, gray mold on tomato)” value (Botrytis cinerea; in vivo) was “H (H shows more than 50% of control values)”. The “Test C (control value class, Alternaria sooty spot on cabbage)” value (Alternaia brassicicola; in vivo) was “H (H shows more than 50% of control values)” and the “Test E (control value class, brown rust on wheat)” value (Puccinia recondita; in vivo) was “H (H shows more than 50% of control values)”.
With `CCn1c(-c2c(F)cc(F)cc2F)c(-c2cc(OCOC)ccc2Cl)cc(Cl)c1=O` [Compound 795] the “Test D (control value class)” value [1, 7] was “H (H shows more than 50% of control values)”, the “Test G (control value class)” value (Plasmopara viticola; [8]) was “H (H shows more than 50% of control values)” and the “Test B (control value class)” value (Botrytis cinerea; [9]) was “H (H shows more than 50% of control values)”. For the same compound, the “Test C (control value class)” value (Alternaia brassicicola; control value=100{1-(n/3)}) was “H (H shows more than 50% of control values)” and the “Test E (control value class)” value (Puccinia recondita; [10]) was “H (H shows more than 50% of control values)”.
For `CC(C)COc1ccc(Cl)c(-c2ccc(=O)n(C)c2-c2c(F)cccc2F)c1` [Compound 259], the “Test D control value (powdery mildew on barley)” value ([1]; 250 ppm spray) was “L (L shows 50% or less of control values)”, the “Test G control value (downy mildew on vine)” value (Plasmopara viticola; 7-10 days after inoculation) was “L (L shows 50% or less of control values)” and the “Test B control value (gray mold on tomato)” value (Botrytis cinerea; 250 ppm spray) was “L (L shows 50% or less of control values)”. The “Test C control value (Alternaria sooty spot on cabbage)” value (Alternaia brassicicola; 250 ppm spray) was “H (H shows more than 50% of control values)” and the “Test E control value (brown rust on wheat)” value (Puccinia recondita; 250 ppm spray) was “L (L shows 50% or less of control values)”.
In the case of `CCn1c(-c2c(F)cccc2F)c(-c2cc(OCC(C)=O)ccc2Cl)ccc1=O` [Compound 303], the “Test D control value (powdery mildew on barley)” value ([1]; 250 ppm spray) was “H (H shows more than 50% of control values)”, the “Test G control value (downy mildew on vine)” value (Plasmopara viticola; 7-10 days after inoculation) was “L (L shows 50% or less of control values)” and the “Test B control value (gray mold on tomato)” value (Botrytis cinerea; 250 ppm spray) was “H (H shows more than 50% of control values)”. The “Test C control value (Alternaria sooty spot on cabbage)” value (Alternaia brassicicola; 250 ppm spray) was “H (H shows more than 50% of control values)” and the “Test E control value (brown rust on wheat)” value (Puccinia recondita; 250 ppm spray) was “H (H shows more than 50% of control values)”.
In the case of `COCCCOc1ccc(Cl)c(-c2ccc(=O)n(C)c2-c2c(F)cccc2F)c1` [Compound 311], the “Test D control value (powdery mildew on barley)” value ([1]; 250 ppm spray) was “H (H shows more than 50% of control values)”, the “Test G control value (downy mildew on vine)” value (Plasmopara viticola; 7-10 days after inoculation) was “L (L shows 50% or less of control values)” and the “Test B control value (gray mold on tomato)” value (Botrytis cinerea; 250 ppm spray) was “H (H shows more than 50% of control values)”. The “Test C control value (Alternaria sooty spot on cabbage)” value (Alternaia brassicicola; 250 ppm spray) was “H (H shows more than 50% of control values)” and the “Test E control value (brown rust on wheat)” value (Puccinia recondita; 250 ppm spray) was “H (H shows more than 50% of control values)”.
In the case of `CCn1c(-c2c(F)cccc2F)c(-c2ccccc2[S+](C)[O-])ccc1=O` (stereo not shown) [Compound 264], the “Test D control value (powdery mildew on barley)” value ([1]; 250 ppm spray) was “L (L shows 50% or less of control values)”, the “Test G control value (downy mildew on vine)” value (Plasmopara viticola; 7-10 days after inoculation) was “L (L shows 50% or less of control values)” and the “Test B control value (gray mold on tomato)” value (Botrytis cinerea; 250 ppm spray) was “H (H shows more than 50% of control values)”. For the same compound, the “Test C control value (Alternaria sooty spot on cabbage)” value (Alternaia brassicicola; 250 ppm spray) was “L (L shows 50% or less of control values)” and the “Test E control value (brown rust on wheat)” value (Puccinia recondita; 250 ppm spray) was “L (L shows 50% or less of control values)”.
For `CCn1c(-c2c(F)cccc2F)c(-c2ccc(Br)cc2)cc(Br)c1=O` [Compound 293], the “Test D control value (powdery mildew on barley)” value ([1]; 250 ppm spray) was “H (H shows more than 50% of control values)”, the “Test G control value (downy mildew on vine)” value (Plasmopara viticola; 7-10 days after inoculation) was “L (L shows 50% or less of control values)” and the “Test B control value (gray mold on tomato)” value (Botrytis cinerea; 250 ppm spray) was “H (H shows more than 50% of control values)”. For the same compound, the “Test C control value (Alternaria sooty spot on cabbage)” value (Alternaia brassicicola; 250 ppm spray) was “H (H shows more than 50% of control values)” and the “Test E control value (brown rust on wheat)” value (Puccinia recondita; 250 ppm spray) was “H (H shows more than 50% of control values)”.
`CCn1c(-c2c(F)cccc2F)c(-c2cc(OCC#N)ccc2Cl)cc(C)c1=O` [Compound 801] was tested, and the “Test D (control value class)” value [1, 7] was “H (H shows more than 50% of control values)”, the “Test G (control value class)” value (Plasmopara viticola; [8]) was “H (H shows more than 50% of control values)” and the “Test B (control value class)” value (Botrytis cinerea; [9]) was “H (H shows more than 50% of control values)”. The “Test C (control value class)” value (Alternaia brassicicola; control value=100{1-(n/3)}) was “H (H shows more than 50% of control values)” and the “Test E (control value class)” value (Puccinia recondita; [10]) was “H (H shows more than 50% of control values)”.
